Results from PubChem BioAssay AID504333 (National Center for Advancing Translational Sciences (NCATS), 2011).
In all, about 360,000 compounds went through this assay and about 16,000 (4.4%) were called active. The inconclusive results got no clear call from the source; some entries with a clear call stand among them for comparison. Calls come from the whole dose curve; as a rule, active = well fitted inhibition curve with a large enough effect; inconclusive = small, poorly fitted or top-dose-only effect; inactive = no such curve, though single readings can be large or run the other way. A potency beside an inconclusive call is a rough fit, not a confirmed value.
% is set by controls: 0 for no effect and ±100 for the full control effect; potency is the fitted concentration of half-maximal effect; tags give direction and shape of the fitted curve.
Note: nearly all actives have a fitted effect of over 60% in size.

Each compound was assayed against Bromodomain adjacent to zinc finger domain protein 2B (Homo sapiens) (UniProt Q9UIF8) (assay: qHTS Assay for Inhibitors of BAZ2B). Details: AlphaScreen BAZ2B-H3K14Ac peptide displacement; activity change, negative = inhibition: at 114 µM (top of the series) unless noted.
Chain of UniProt Q9UIF8 (Q9UIF8 whole entry, looked up, the tested form may be a part): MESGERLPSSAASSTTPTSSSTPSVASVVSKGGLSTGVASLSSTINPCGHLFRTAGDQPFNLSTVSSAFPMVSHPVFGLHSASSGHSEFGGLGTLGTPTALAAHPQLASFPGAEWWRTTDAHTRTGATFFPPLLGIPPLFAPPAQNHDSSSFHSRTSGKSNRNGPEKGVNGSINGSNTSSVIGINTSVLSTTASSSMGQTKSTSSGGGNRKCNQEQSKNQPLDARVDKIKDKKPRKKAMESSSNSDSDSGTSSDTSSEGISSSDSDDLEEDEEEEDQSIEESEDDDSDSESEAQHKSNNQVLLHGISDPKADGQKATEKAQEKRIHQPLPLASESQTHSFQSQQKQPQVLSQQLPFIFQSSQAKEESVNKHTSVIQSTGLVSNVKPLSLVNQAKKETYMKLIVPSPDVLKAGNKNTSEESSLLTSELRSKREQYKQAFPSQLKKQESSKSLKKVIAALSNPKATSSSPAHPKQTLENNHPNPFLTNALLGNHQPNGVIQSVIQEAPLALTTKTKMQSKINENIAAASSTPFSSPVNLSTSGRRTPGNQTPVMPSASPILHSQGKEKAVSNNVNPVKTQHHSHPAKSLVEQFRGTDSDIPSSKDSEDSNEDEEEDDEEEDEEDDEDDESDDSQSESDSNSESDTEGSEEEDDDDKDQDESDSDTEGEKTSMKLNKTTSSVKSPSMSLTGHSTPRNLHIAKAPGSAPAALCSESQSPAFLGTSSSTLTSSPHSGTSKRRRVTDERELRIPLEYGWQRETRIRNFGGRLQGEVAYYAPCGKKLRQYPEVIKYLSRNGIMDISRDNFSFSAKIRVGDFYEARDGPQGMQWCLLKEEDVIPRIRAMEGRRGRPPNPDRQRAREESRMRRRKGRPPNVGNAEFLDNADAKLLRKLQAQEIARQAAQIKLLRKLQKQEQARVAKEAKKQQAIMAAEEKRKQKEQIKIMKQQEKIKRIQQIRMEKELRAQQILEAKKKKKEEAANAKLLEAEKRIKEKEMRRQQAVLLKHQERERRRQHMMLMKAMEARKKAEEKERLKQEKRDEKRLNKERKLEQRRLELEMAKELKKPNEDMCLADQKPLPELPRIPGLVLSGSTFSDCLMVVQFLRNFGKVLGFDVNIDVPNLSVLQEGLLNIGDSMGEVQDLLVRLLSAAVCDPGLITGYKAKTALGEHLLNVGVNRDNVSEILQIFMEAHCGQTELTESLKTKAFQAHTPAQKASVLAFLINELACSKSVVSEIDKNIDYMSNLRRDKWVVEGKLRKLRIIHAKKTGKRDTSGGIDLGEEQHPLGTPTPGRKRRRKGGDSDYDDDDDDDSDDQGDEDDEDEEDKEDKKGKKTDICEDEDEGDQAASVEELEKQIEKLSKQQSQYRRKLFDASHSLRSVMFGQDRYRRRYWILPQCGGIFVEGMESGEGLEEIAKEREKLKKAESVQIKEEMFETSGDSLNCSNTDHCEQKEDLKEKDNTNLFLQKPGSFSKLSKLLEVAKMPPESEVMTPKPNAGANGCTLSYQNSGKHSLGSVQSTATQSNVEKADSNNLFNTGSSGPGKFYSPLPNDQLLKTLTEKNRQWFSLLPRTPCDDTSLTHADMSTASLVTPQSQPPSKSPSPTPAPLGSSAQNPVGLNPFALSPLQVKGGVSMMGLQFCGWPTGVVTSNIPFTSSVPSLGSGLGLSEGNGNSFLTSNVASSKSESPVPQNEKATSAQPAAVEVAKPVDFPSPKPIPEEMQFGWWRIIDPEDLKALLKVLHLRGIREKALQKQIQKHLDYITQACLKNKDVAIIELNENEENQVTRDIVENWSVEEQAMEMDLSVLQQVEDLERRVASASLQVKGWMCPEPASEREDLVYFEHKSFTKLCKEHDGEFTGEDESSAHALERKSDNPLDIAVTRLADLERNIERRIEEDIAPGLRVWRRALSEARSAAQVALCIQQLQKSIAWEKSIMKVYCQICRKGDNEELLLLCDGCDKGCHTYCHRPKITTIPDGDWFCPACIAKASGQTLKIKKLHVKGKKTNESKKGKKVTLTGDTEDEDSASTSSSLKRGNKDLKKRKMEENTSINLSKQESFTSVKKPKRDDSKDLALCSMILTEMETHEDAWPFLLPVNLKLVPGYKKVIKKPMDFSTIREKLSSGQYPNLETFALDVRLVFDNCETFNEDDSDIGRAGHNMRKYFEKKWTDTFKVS
In short: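 Compounds, titrated to a top concentration of 110 uM, were incubated 30 min at room temperature with preformed BAZ2B/acetyl-K14 H3 peptide complex (50 nM each). Proximity signal was measured by AlphaScreen after 20 min with beads.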
In the case of CCCCOC(=O)c1ccc(Nc2nnc(-n3nc(C)cc3C)c3ccccc23)cc1, the “activity change, negative = inhibition” value is reported as inactive: -4.46%.
With COc1ccccc1NC(=O)CSc1nc(N)c(C#N)cc1C#N the Potency was inconclusive: 89.1 µM [inhibitor, single point].
In the case of COc1ccc(-c2noc(CN(C(=O)c3cc(OC)c(OC)cc3OC)C(C)C)n2)cc1, the Potency is reported as inconclusive: 79.4 µM [inhibitor, partial curve].
For CCCc1nnc(NC(=O)COc2ccc3c(c2)OCO3)s1, the “activity change, negative = inhibition” value was inactive: -17%.
COc1ccc(N2CCN(C(=O)c3cccc(NS(=O)(=O)c4cccc(F)c4)c3)CC2)cc1 was tested, and the Potency was active: 39.8 µM.
For O=C1CN(C(=O)c2ccc(Br)o2)C(c2ccc(F)cc2)c2cc(Cl)ccc2N1 (configuration not stated), the Potency was inconclusive: 44.7 µM [inhibitor, partial curve].
In the case of COc1ccc(C(=O)N/N=C(\C)c2ccccn2)cc1OC, the Potency is reported as active: 7.94 µM.
O=C(Nc1ccc2c(c1)nc1n2CCN(Cc2ccccc2)C1)c1cccs1 was tested, and the Potency was inconclusive: 89.1 µM [inhibitor, single point].
For COc1ccc2nc(-c3ccccn3)[nH]c2c1, the Potency was inconclusive: 89.1 µM [inhibitor, single point].
For O=C(NCc1ccccc1)C12CN(Cc3ccccc3)CC1C(c1cccc([N+](=O)[O-])c1)=NO2 (configuration not stated), the Potency was inconclusive: 35.5 µM [inhibitor, partial curve].
In the case of COCCN1C(=O)/C(=C/c2ccc(N3CCCC3)cc2C)SC1=S, the Potency is reported as active: 8.91 µM.
For CC(C)[C@H](NC(=O)C1CC(=O)N(c2ccc3c(c2)OCO3)C1)C(=O)NC1CCCC1 (some centres not stated), the Potency was inconclusive: 25.1 µM [inhibitor, single point].
For CC1(C)Cc2c(c(N3CCOCC3)nc3sc4c(NCc5ccccc5)nnnc4c23)CS1, the “activity change, negative = inhibition” value was inactive: -22.3%.
For Cc1cc([N+](=O)[O-])nn1CCCC(=O)Nc1cc(Oc2ccccc2)cc([N+](=O)[O-])c1, the Potency was inconclusive: 79.4 µM [inhibitor, single point].
For Cc1cccc(NC(=O)C(=O)NCCc2csc(-c3ccc(C(F)(F)F)cc3)n2)c1C, the “activity change, negative = inhibition” value was inactive: 5.12%.
For O=C(CC1N=C2c3ccccc3N=C(SCC(=O)Nc3ccccc3F)N2C1=O)NCc1cccs1 (configuration not stated), the Potency was inconclusive: 79.4 µM [inhibitor, single point].
In the case of C/C(=N/NS(=O)(=O)c1cc(C)ccc1C)c1ccc2c(c1)OCO2, the “activity change, negative = inhibition” value is reported as inactive: -24.7%.
O=[N+]([O-])c1ccccc1CN1CCN(S(=O)(=O)Cc2ccccc2)CC1 was tested, and the Potency was active: 44.7 µM.
For CCc1c(C)[nH]c2ccc(OC)cc2c1=S, the Potency was inconclusive: 79.4 µM [inhibitor, partial curve].
In the case of O=C1/C(=C/c2ccco2)CCc2ccccc21, the Potency is reported as active: 39.8 µM.
In the case of CCOc1ccc(S(=O)(=O)N2CCC(C(=O)NCc3ccccn3)CC2)cc1Cl, the Potency is reported as inconclusive: 89.1 µM [inhibitor, single point].
Cc1nnc(SCCC(=O)Nc2ccc(Cl)cc2)o1 was tested, and the Potency was inconclusive: 89.1 µM [inhibitor, single point].
In the case of O=C(Nc1ccc(N2CCN(C(=O)c3ccccc3)CC2)cc1)c1ccc(Br)o1, the Potency is reported as inconclusive: 89.1 µM [inhibitor, single point].
In the case of Cc1n[nH]c(=S)n(/N=C/c2ccccn2)c1=O, the Potency is reported as inconclusive: 89.1 µM [inhibitor, single point].
With COc1ccccc1CCc1nnc(CCC(=O)NCC[C@@H]2C[C@@H]3C=C[C@H]2C3)o1 the “activity change, negative = inhibition” value was inactive: 25.8%.
In the case of O=C(CN1CCCCCC1)Nc1ccccc1F, the Potency is reported as active: 56.2 µM.
With Cc1[nH][nH]c(=O)c1C(c1ccc(-c2ccc(Cl)c(C(=O)O)c2)o1)c1c(C)[nH][nH]c1=O the Potency was active: 39.8 µM.
In the case of CC(C(=O)N(C)C1CCS(=O)(=O)C1)N1C(=O)/C(=C/c2ccco2)SC1=S (configuration not stated), the Potency is reported as active: 56.2 µM.
In the case of CCCCNCC#CCOc1cc(C)ccc1C(C)C, the Potency is reported as inconclusive: 79.4 µM [inhibitor, single point].
With Nc1ccccc1SCC(=O)Nc1cccc2ccccc12 the Potency was inconclusive: 56.2 µM [inhibitor, partial curve, poor fit].
In the case of O=C(CC(=O)c1ccccc1)Nc1ccccc1C(F)(F)F, the Potency is reported as inconclusive: 89.1 µM [inhibitor, single point].
With Cc1cccc(NC(=S)NNc2cccc(Cl)c2)c1 the Potency was active: 10 µM.
In the case of CC(C)N1CCN(S(=O)(=O)c2ccccc2)CC1, the Potency is reported as inconclusive: 89.1 µM [inhibitor, single point].
For CCOC(=O)c1c(Cc2ccccc2)c[nH]c1C, the “activity change, negative = inhibition” value was inactive: -14.9%.
With Cc1ccccc1N=C1NC(=O)/C(=C/c2cccn2-c2cccc(C(=O)O)c2)S1 the Potency was active: 39.8 µM.
In the case of CCOCCCN(C)C1CCN(C(=O)c2oc3ccccc3c2NC(=O)COc2cccc(C)c2)CC1, the Potency is reported as inconclusive: 79.4 µM [inhibitor, single point].
With S=C(NCCc1ccc(Cl)cc1)NC1CC1 the Potency was inconclusive: 79.4 µM [inhibitor, single point].
For Cn1nc(C(=O)Nc2nc(-c3ccccn3)cs2)c2ccccc2c1=O, the Potency was active: 17.8 µM.
In the case of CN(C)CCn1c(=O)n(Cc2ccccc2)c(=O)c2c3c(sc21)CCCCC3, the Potency is reported as inconclusive: 44.7 µM [inhibitor, partial curve].
In the case of COc1cc(CNCCc2c[nH]c3ccccc23)cc(Cl)c1OCC(N)=O, the Potency is reported as inconclusive: 56.2 µM [inhibitor, partial curve].
With CC(=O)Nc1ccc(N2CCCC(C)C2)c([N+](=O)[O-])c1 (configuration not stated) the Potency was active: 35.5 µM.
In the case of C=CCc1c(C)nc(SCc2ccccc2)[nH]c1=O, the Potency is reported as inconclusive: 89.1 µM [inhibitor, single point].
Cc1ccccc1C(=O)NNC(=O)C(=O)Nc1cccc(Cl)c1C was tested, and the Potency was inconclusive: 89.1 µM [inhibitor, single point].
CC(=O)N1CCN(S(=O)(=O)c2ccc(C)cc2)C1C (configuration not stated) was tested, and the “activity change, negative = inhibition” value was inactive: -6.58%.
In the case of CC(C)C[C@H](NC(=O)c1nc[nH]c1C(=O)NC1CCNCC1)C(=O)OC(C)(C)C, the Potency is reported as active: 79.4 µM.
With Cc1ccc(S(=O)(=O)Nc2ccc(N(C)C)cc2)cc1 the Potency was active: 35.5 µM.
With O=C(CSc1nc2ccccc2[nH]1)N=Nc1c(O)[nH]c2ccccc12 the “activity change, negative = inhibition” value was inactive: -29.7%.
With CCN(CC)CCCn1c(=S)[nH]c2cc(C(=O)OC)ccc2c1=O the Potency was inconclusive: 89.1 µM [inhibitor, single point].
For COc1ccc(N(C)C(=O)c2cc(S(=O)(=O)N3CCc4ccccc43)cn2C)c(OC)c1, the Potency was inconclusive: 79.4 µM [inhibitor, single point].
With S=C(NCc1ccco1)N1CCN(C/C=C/c2ccccc2)CC1 the Potency was inconclusive: 70.8 µM [inhibitor, single point].
Cc1ccc(OCC(=O)NNC(=O)c2cc(C)[nH]n2)cc1 was tested, and the “activity change, negative = inhibition” value was inactive: 2.04%.
For Clc1ccc(N2CCN(Cc3ccc(Br)o3)CC2)cc1, the Potency was active: 50.1 µM.
With CN(c1ccc(C(=O)Nc2ccc3c(c2)n(C)c(=O)n3C)cc1)S(C)(=O)=O the Potency was inconclusive: 79.4 µM [inhibitor, partial curve].
With CC(=O)c1cc(F)c(N2CCN(C(=O)Cc3ccccc3)CC2)cc1C the Potency was active: 56.2 µM.
For O=[N+]([O-])c1cc(-c2nc(-c3ccccc3)no2)ccc1NC1CCCC1, the Potency was inconclusive: 56.2 µM [inhibitor, partial curve].
COc1ccc(CN2C(=O)N(c3ccc(C)cc3)C(=O)C2CC(=O)Nc2ccccc2)cc1OC (configuration not stated) was tested, and the “activity change, negative = inhibition” value was inactive: -10.4%.
For COc1ccc(C2C(C(=O)c3ccc(C)o3)=C(O)C(=O)N2Cc2ccco2)cc1OC (configuration not stated), the Potency was inconclusive: 79.4 µM [inhibitor, single point].
COc1ccc(NC(=O)CN(C)CC(=O)Nc2ccc(N3CCOCC3)cc2)c([N+](=O)[O-])c1 was tested, and the Potency was active: 44.7 µM.
COc1ccc(CCC(=O)N2CCCC(Nc3ccccc3)C2)cc1OC (configuration not stated) was tested, and the Potency was inconclusive: 79.4 µM [inhibitor, single point].
In the case of COc1cc(C(=O)NCc2nnc(SCC(=O)Nc3cccc(C(F)(F)F)c3)o2)cc(OC)c1OC, the “activity change, negative = inhibition” value is reported as inactive: -4.16%.
With O=S(=O)(Nc1ncnc2sc3c(c12)CCC3)c1ccc2ccccc2c1 the Potency was inconclusive: 79.4 µM [inhibitor, single point].
In the case of COc1ccc(-c2cc(-c3ccc(Cl)cc3)c(C#N)c(SCC(=O)O)n2)cc1, the Potency is reported as inconclusive: 70.8 µM [inhibitor, single point].
In the case of CCc1sc(/C=C(/C#N)C(N)=S)cc1[N+](=O)[O-], the Potency is reported as inconclusive: 50.1 µM [inhibitor, partial curve].
In the case of CCOC(=O)c1c(CN2CCOCC2)n(-c2ccccc2)c2cc(Br)c(O)cc12, the Potency is reported as inconclusive: 89.1 µM [inhibitor, single point].
For COc1ccc(-c2ccc(CCC(=O)O)n2CC(=O)Nc2cccc(C(F)(F)F)c2)cc1, the Potency was inconclusive: 39.8 µM [inhibitor, partial curve].
In the case of CC(CC(=O)Nc1nc2ccccc2[nH]1)n1ccnc1 (configuration not stated), the Potency is reported as inconclusive: 79.4 µM [inhibitor, single point].
With Cc1nnc(NC(=O)C(=O)c2cc(C)n(-c3ccc(C)c(C)c3)c2C)s1 the Potency was inconclusive: 89.1 µM [inhibitor, single point].
CN1C(=O)C2(NC(=O)c3ccccc3N2C)c2ccccc21 (configuration not stated) was tested, and the “activity change, negative = inhibition” value was inactive: 3.74%.
For C=CCc1cc(OC)ccc1OCCOCCN1CCc2ccccc2C1, the Potency was active: 56.2 µM.
COc1cccc(C2=CC(c3ccc(OC)c(OC)c3)NC(=S)N2)c1 (configuration not stated) was tested, and the Potency was inconclusive: 79.4 µM [inhibitor, single point].
CC(C)(C)C(=O)N(Cc1nc2ccccc2c(=O)[nH]1)Cc1cccs1 was tested, and the “activity change, negative = inhibition” value was inactive: -3.41%.
COC(=O)c1ccc(-n2c(C)cc(C(=O)CCl)c2C)cc1 was tested, and the Potency was inconclusive: 79.4 µM [inhibitor, single point].
